{
  "source": "PubChem BioAssay AID651820",
  "about": "(National Center for Advancing Translational Sciences (NCATS), 2012)",
  "note": "Several values for one entry are separate records, joined by “and”; a condition that tells them apart may be missing. Equal entries are not always repeated. In all, about 340,000 compounds went through this assay and about 12,000 (3.5%) were called active. The shares of active, inactive and inconclusive entries below differ from those in the screen. The call rests on the fitted dose curve; in most records, active means well fitted inhibition curve with a large enough effect; inconclusive means small, poorly fitted or top-dose-only effect, or another doubt; inactive means no such curve, though single readings can be large or run the other way. A potency beside an inconclusive call is a rough fit, not a confirmed value. Potency means the concentration at half of the fitted maximal effect; tags describe the fitted curve by direction and shape.",
  "data": [
    {"test": "qHTS Assay for Inhibitors of Hepatitis C Virus (HCV)", "conditions": "Huh7.5.1 HCVcc-Cre (HCVcc is cell-culture hepatitis C virus) infection, luciferase reporter, 44 h; series mostly up to 41.8 µM", "outline": "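Reporter virus HCVcc-Cre (~0.5 moi) infects cells exposed to compound; seeding density 1,000 cells/well with 4 h settling beforehand. Luminescence, 15 sec read, taken 44 h post-infection following a 15 min RT substrate incubation.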", "values": [
      {"smiles": "Cc1ccc(S(=O)(=O)Nc2ccc3nc(C)sc3c2)c(C)c1", "Potency": "inconclusive: 10 µM [inhibitor, partial curve]"},
      {"smiles": "O=C(NN=C1CCCCC1)Nc1ccccc1Cl", "Potency": "inconclusive: 31.6 µM [inhibitor, single point]"},
      {"smiles": "Cc1ccc(NC(=O)CN2C(=O)CSc3ccc(S(=O)(=O)N4CCCCC4)cc32)cc1", "Potency": "inconclusive: 11.2 µM [inhibitor, partial curve]"},
      {"smiles": "CCN(CC)CCNc1nc2c(c(=O)[nH]c(=O)n2C)n1CC(O)COc1ccc(Cl)cc1Cl", "note": "(stereo not given)", "Potency": "inactive"},
      {"smiles": "CCOC(=O)c1c(NC(=O)C(NCCN(C)C)c2ccccc2)sc2c1CCCC2", "note": "(stereo not given)", "Potency": "active: 0.891 µM"},
      {"smiles": "Cc1cnc(C(=O)Nc2ccc(OC(F)(F)F)cc2)cn1", "Potency": "inactive"},
      {"smiles": "CC(=O)Oc1ccc(-n2c(=O)c3ccccc3c3ccccc3c2=O)cc1", "Potency": "inconclusive: 5.62 µM [inhibitor, single point]"},
      {"smiles": "CC(Sc1ccc(Cl)cc1)C(=O)NNC(=O)c1csc(N2CCOCC2)n1", "note": "(stereo not given)", "Potency": "inactive"},
      {"smiles": "Oc1ccccc1Nc1ccccn1", "Potency": "inconclusive: 2.51 µM [inhibitor, full curve, poor fit]"},
      {"smiles": "COc1cc2c(cc1OC)CN(C(=O)c1ccc(N3CCCC3)c([N+](=O)[O-])c1)CC2", "Potency": "inconclusive: 6.31 µM [inhibitor, full curve]"},
      {"smiles": "COc1ccc(Cl)cc1NC(=O)CN(C)C(=O)c1cn2ccccc2n1", "Potency": "inconclusive: 31.6 µM [inhibitor, single point]"},
      {"smiles": "CCOc1ccc(NC(=O)CCN2CCN(c3ccccc3F)CC2)cc1", "Potency": "inconclusive: 31.6 µM [inhibitor, single point]"},
      {"smiles": "CCOC(=O)C1CCCN(S(=O)(=O)c2cc(Br)cc3c2N(C(C)=O)CC3)C1", "note": "(stereo not given)", "Potency": "inconclusive: 31.6 µM [inhibitor, single point]"},
      {"smiles": "COc1cc(NC(=O)CN2C(=O)C(=O)N(CC(C)C)C2=O)cc(OC)c1", "Potency": "inconclusive: 11.2 µM [inhibitor, partial curve]"},
      {"smiles": "CC1CN(CCCCN2C(=O)c3ccccc3C2=O)CC(C)O1", "note": "(stereo not given)", "Potency": "inactive"},
      {"smiles": "COc1ccc(N(CCC#N)C(=O)/C(C#N)=C\\c2cccs2)cc1", "Potency": "inactive"},
      {"smiles": "O=C(Cc1ccccc1)Nc1ccc(NC(=S)NC(=O)c2ccccc2)cc1", "Potency": "inconclusive: 11.2 µM [inhibitor, partial curve]"},
      {"smiles": "COc1cccc(-n2nnnc2S(C)(=O)=O)c1", "Potency": "inconclusive: 2.82 µM [inhibitor, full curve]"},
      {"smiles": "CCNC(=O)NC(=O)C(C)Sc1nc2cc(C(=O)OC)ccc2c(=O)n1-c1ccccc1", "note": "(stereo not given)", "Potency": "inactive"},
      {"smiles": "Cc1noc(/C=C/c2ccco2)c1S(=O)(=O)N1CCC(C(=O)Nc2ccc(Cl)cn2)CC1", "Potency": "inconclusive: 10 µM [inhibitor, partial curve]"},
      {"smiles": "CCn1cc(Br)c(C(=O)Nc2nccs2)n1", "Potency": "inconclusive: 11.2 µM [inhibitor, partial curve]"},
      {"smiles": "Cn1ncc(Cl)c1C(=O)Nc1sc2c(c1C(N)=O)CCC2", "Potency": "inconclusive: 31.6 µM [inhibitor, single point]"},
      {"smiles": "O=S(=O)(c1ccc(NC(=S)NCCC(c2ccccc2)c2ccccc2)cc1)N1CCOCC1", "Potency": "inconclusive: 22.4 µM [inhibitor, single point]"},
      {"smiles": "CCOC(=O)c1cc(C)nc(S(C)(=O)=O)c1C#N", "Potency": "inconclusive: 31.6 µM [inhibitor, single point]"},
      {"smiles": "CCN1CCSc2ccc(C(=O)NCc3cc(Br)ccc3OC)cc21", "Potency": "inconclusive: 4.47 µM [inhibitor, full curve]"},
      {"smiles": "CN(C)c1ccc2c(c1)OC(N)=C(C#N)C2c1cccc(F)c1", "note": "(stereo not given)", "Potency": "inconclusive: 31.6 µM [inhibitor, single point]"},
      {"smiles": "COc1ccc(C(=O)OCC(=O)Nc2cc(C)on2)cc1S(=O)(=O)N1CCOCC1", "Potency": "inactive"},
      {"smiles": "CCCC(=O)NC(c1ccc(OC)cc1)c1c(O)ccc2ccccc12", "note": "(stereo not given)", "Potency": "inconclusive: 5.01 µM [inhibitor, partial curve]"},
      {"smiles": "COC(=O)CSC1=C(C#N)C(c2ccc3c(c2)OCO3)C2=C(CCCC2=O)N1", "note": "(stereo not given)", "Potency": "inactive"},
      {"smiles": "COc1ccccc1CCC(=O)Nc1cccc(S(=O)(=O)N2CCCCCC2)c1", "Potency": "active: 10 µM"},
      {"smiles": "CNC(=S)N(CCc1c(C)[nH]c2ccc(F)cc12)Cc1ccco1", "Potency": "inconclusive: 0.501 µM [inhibitor, full curve, poor fit]"},
      {"smiles": "S=C(N/N=C/c1ccco1)NC1CC2CCC1C2", "note": "(stereo not given)", "Potency": "inconclusive: 2 µM [inhibitor, full curve]"},
      {"smiles": "CCC(C)Sc1nc2c(c(=O)[nH]c(=O)n2C)n1CC(O)COc1ccccc1C", "note": "(stereo not given)", "Potency": "inconclusive: 7.94 µM [inhibitor, partial curve]"},
      {"smiles": "COc1ccc(C(=O)Nc2cc3c4c(c2)CC(=O)N4CCC3)c(OC)c1", "Potency": "active: 3.98 µM"},
      {"smiles": "CCCCC(O)(c1ccccc1)C(CN1CCOCC1)c1ccccc1", "note": "(stereo not given)", "Potency": "inconclusive: 22.4 µM [inhibitor, single point]"},
      {"smiles": "CCOc1ccc(N=Nc2c(C)[nH]n(-c3ccccc3)c2=O)cc1", "Potency": "inactive"},
      {"smiles": "c1ccc(CC2CCCNC2)cc1", "note": "(stereo not given)", "Potency": "inactive"},
      {"smiles": "CCC(=O)n1nc(NCc2ccc(OC)c(OC)c2)nc1NCc1ccc(OC)c(OC)c1", "Potency": "inactive and inconclusive: 12.6 µM [inhibitor, partial curve]"},
      {"smiles": "COc1ccc2c3c1OC1C(=O)CC[C@@]4(O)[C@@H](C2)N(C)CC[C@]314", "note": "(stereo not given in full)", "Potency": "inconclusive: 35.5 µM [inhibitor, partial curve]"},
      {"smiles": "O=C(/C=C/c1ccco1)N1CCN(S(=O)(=O)/C=C/c2ccccc2)CC1", "Potency": "inconclusive: 5.62 µM [inhibitor, partial curve]"},
      {"smiles": "CCOc1ccccc1C(=O)Nc1ccccc1O", "Potency": "active: 11.2 µM"},
      {"smiles": "Cc1ccc(S(=O)(=O)CCC(=O)OCc2nnc(-c3ccc([N+](=O)[O-])cc3)o2)cc1", "Potency": "inactive"},
      {"smiles": "COCCCN(Cc1ccco1)C(=O)Cn1ncc2c(=O)oc3ccc(C)cc3c21", "Potency": "inactive"},
      {"smiles": "COc1ccc(NS(=O)(=O)c2cccc(-c3nnc(-c4ccccc4)o3)c2)cc1", "Potency": "inconclusive: 10 µM [inhibitor, partial curve]"},
      {"smiles": "CC1(C)N=C(SCC(=O)Nc2ccc(Cl)cc2)C(c2ccc(Cl)cc2)=N1", "Potency": "active: 12.6 µM"},
      {"smiles": "CCN(CC)S(=O)(=O)c1cc(OC)c(Cl)cc1OC", "Potency": "inactive"},
      {"smiles": "O=C(NCc1cccnc1)c1cc(Sc2cccc(Cl)c2)nc2ccccc12", "Potency": "inconclusive: 25.1 µM [inhibitor, partial curve]"},
      {"smiles": "O=C(Nc1ccc(Nc2ccccc2)cc1)c1ccc(F)cc1", "Potency": "active: 10 µM"},
      {"smiles": "COc1ccc(NC(=O)CCS(=O)(=O)c2ccc3c(c2)oc(=O)n3C)cc1OC", "Potency": "inactive"},
      {"smiles": "OCOCCCn1c(C2CCCN2c2nc(-c3ccc(F)cc3)cs2)nc2cc(Cl)c(N3CCCCC3)cc21", "note": "(stereo not given)", "Potency": "inconclusive: 31.6 µM [inhibitor, single point]"},
      {"smiles": "CN(C)S(=O)(=O)c1cccc(NC(=O)/C=C/c2ccc(S(=O)(=O)N3CCOCC3)cc2)c1", "Potency": "inconclusive: 2.24 µM [inhibitor, partial curve]"},
      {"smiles": "CCCOc1ccc(NC(=O)OC2CCN(C)CC2)cc1", "Potency": "inconclusive: 0.501 µM [inhibitor, full curve, poor fit]"},
      {"smiles": "O=C(N=Nc1c(O)[nH]c2ccc(Cl)cc12)c1cc(-c2cccs2)nc2ccccc12", "Potency": "inconclusive: 22.4 µM [inhibitor, single point]"},
      {"smiles": "CC(=O)N(Cc1cccnc1)c1cccc(-c2nc3ccccc3s2)c1", "Potency": "inconclusive: 31.6 µM [inhibitor, single point]"},
      {"smiles": "C[n+]1c(-c2ccccc2)cc2c(=Cc3ccc([N+](=O)[O-])cc3)c3ccccc3n21", "Potency": "inconclusive: 10 µM [inhibitor, partial curve]"},
      {"smiles": "O=C(O)c1ccc(CNCc2c(Cl)cccc2Cl)cc1", "Potency": "inconclusive: 20 µM [inhibitor, partial curve, poor fit]"},
      {"smiles": "CCOc1ccccc1N1C(=O)CN(Cc2ccc(OC)c(OC)c2)C1=S", "Potency": "active: 12.6 µM"},
      {"smiles": "Cn1c(-c2ccccc2)c(C#Cc2ccc(N)cc2)c2ccccc21", "Potency": "inconclusive: 7.94 µM [inhibitor, partial curve]"},
      {"smiles": "O=C(O)Cc1sc(-c2ccc(Cl)cc2)nc1-c1ccccc1", "Potency": "inactive"},
      {"smiles": "CC(/C=C/c1ccccc1F)=N\\NC(=O)C(C)C", "Potency": "inactive"},
      {"smiles": "C=C(C)C(Cc1c(OC)ccc(C(=O)/C=C/c2ccc(O)cc2)c1O)OO", "note": "(stereo not given)", "Potency": "inconclusive: 7.94 µM [inhibitor, partial curve]"},
      {"smiles": "CC(C)CCNC(=O)C1CC2Cn3c(nc4cc(Cl)c(Cl)cc43)C2N1C", "note": "(stereo not given)", "Potency": "inconclusive: 12.6 µM [inhibitor, partial curve]"},
      {"smiles": "CCCC[C@@H](C)C[C@@H](C)C(=O)N(C)[C@@H](CC(C)C)C(=O)N[C@H](C(=O)N(C)[C@H](C(=O)N1C[C@@H](O)C[C@H]1C(=O)N1C(=O)C=C[C@@H]1C)C(C)C)C(C)OC(C)=O", "note": "(stereo not given in full)", "Potency": "active: 3.98 µM"},
      {"smiles": "O=C(COC(=O)C1CC2CCCC(C1)C2=O)NNC(=O)c1ccccc1F", "note": "(stereo not given)", "Potency": "inactive"},
      {"smiles": "CN1CCN(CCCN2c3ccccc3Sc3ccc(S(=O)(=O)N(C)C)cc32)CC1", "Potency": "inconclusive: 25.1 µM [inhibitor, single point]"},
      {"smiles": "CCNC(=S)Nc1scc(-c2ccccc2)c1C(=O)OCC", "Potency": "inactive"},
      {"smiles": "CSCCC(NC(=O)c1ccccc1)C(=O)N1CCN(Cc2ccc(Cl)cc2)CC1", "note": "(stereo not given)", "Potency": "inconclusive: 31.6 µM [inhibitor, single point]"},
      {"smiles": "CC1CCCN(C(=S)Nc2ccc(S(=O)(=O)N3CCCCC3)cc2)C1", "note": "(stereo not given)", "Potency": "inactive"},
      {"smiles": "O=C1NC2C(NC(=O)N2C2CCCCC2)N1C1CCCCC1", "note": "(stereo not given)", "Potency": "inconclusive: 31.6 µM [inhibitor, single point]"},
      {"smiles": "O=C(NCCN1CCOCC1)Nc1ccc(F)cc1", "Potency": "inconclusive: 11.2 µM [inhibitor, single point]"}
    ]}
  ]
}
